From the supplement of paper PMC11417369
± gives the standard deviation of the averaged measurements. The list shows a part of the results.

system: PfAP2-EXP AP2 domain (GST-tagged); assay: gcPBM binding intensity (ln(normalized median fluorescence intensity)); higher = stronger DNA binding
In short: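 Binding of GST-tagged P. falciparum DNA-binding domains, expressed in E. coli and used at about 25 μg on average, was carried out for 1 h in 1× PBS containing 1% milk, 0.2 mg/ml BSA, 0.5% salmon testes DNA and 0.03% Triton X-100. The target was an Agilent 4 × 180k array of primer-extended double-stranded 36-bp intergenic genomic probes plus negative controls, read with Alexa488 anti-GST antibody at 488 nm. Binding intensity is the highest Masliner-normalised natural-log median intensity across replicate spots of either probe orientation.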

Sequence	gcPBM binding intensity (ln)
CTTATATTAATTATTACACACATATTTATAAATGCA [CACACA_site6501]	8.52 ± 0.34
ATTTGTTACGGACATGCATGCGAATCAGGGTATATA [TGCATGCA_site154]	10.1 ± 0.28
TCACCTATTTTTAACTGTACTGAAATGATATATATA [XGTACX_site1366]	8.73 ± 0.47
TAATGAAATTGTAGTAGTACCTTCTTATAAATAAAA [XGTACX_site6747]	8.16 ± 0.42
TAAGAAAAAAAAAAAAAAAAAAAAAAAAAAAAAAAA [CACACA_negctrl_site760]	7.95 ± 0.45
TAAAAATATTTTCATTGTACATATATATAAATATAT [XGTACX_site1123]	8.4 ± 0.33
TATAAAAAAAAAAAATATATATATATATAAATATAA [TGCATGCA_negctrl_site367]	8.2 ± 0.31
TACATATATATATATATATATATATATATCATTATG [XGTACX_negctrl_site293]	8.91 ± 0.11
TTGAGGAAATAACAGTGTACAAACAAATTATTACCA [XGTACX_site7082]	8.59 ± 0.35
GTTCAATTTTTAGGAAGTACAAAAAAAAAAAAGAAA [XGTACX_site7286]	8.6 ± 0.46
ATGGTACATACATACACACACACAAAAAAAAAAAAA [CACACA_site1578]	8.21 ± 0.59
TATATTAGTGTTGACACACACAAAAAAAAAAAAAAA [CACACA_site1396]	8.29 ± 0.5
TATATTTGTATTGTTTGTACTTATATGAATTTATAT [XGTACX_site4228]	8.62 ± 0.41
CAAACCTATATACAAACATGCAATCCACATATTGGT [TGCATGCA_site756]	8.57 ± 0.44
TTTATTGACAATTTATGTACATATAATTGAAAAATA [XGTACX_site6634]	8.57 ± 0.3
GAATGGACGTTAGGGGGTACGTATAAAATTTATCAA [XGTACX_site683]	9.72 ± 0.44
TTTGTGATATTATATTGTACCCTATATTTATTATAA [XGTACX_site4240]	8.66 ± 0.34
GTGGAACGTATATTTTCACACACTCTCAAAAGTACA [CACACA_site8722]	8.43 ± 0.44
ATGTTGCACAGTGGAAGAATTAAAAATAAATAAATA [XGTACX_negctrl_site581]	8.62 ± 0.24
AAATAATGTTTGAATTGTACACATATTTGTGTTTCT [XGTACX_site4603]	8.43 ± 0.2
AATTTTTGTATTTTTAGTACTTAATTTCAAAATAAC [XGTACX_site4234]	8.39 ± 0.38
AATATTATAAATGTCACACATATATTCAAATATATA [CACACA_site4736]	8.29 ± 0.38

Sequence	gcPBM binding intensity (ln)
ATGAACATATCAATTCTCAAAATAGGATGAGAGCAT [CACACA_negctrl_site230]	8.55 ± 0.37
GTGGAACATATGAACTCACACACATTTTCACTTAAA [CACACA_site3683]	8.27 ± 0.33
ATATAAGGATTAATATGTACATATATATATATATTT [XGTACX_site1390]	8.41 ± 0.31
TTTGTATATTATTTTAGTACATAACATTGAAGATAT [XGTACX_site6680]	8.47 ± 0.3
TATTTTGAAACTAAAAGACATAGAGAAAACAAAAAA [CACACA_negctrl_site1306]	8.91 ± 0.54
GACATTGATACCAGTAGTACCTATAGATGTTTGTTT [XGTACX_site5736]	8.66 ± 0.35
TTATGGAATAATCACGTACACACAAGAAAAAAAAAA [CACACA_site526]	8.78 ± 0.44
ATTATATATAAGAAGAGTACTGAATATGTGCAATAT [XGTACX_site4471]	9.35 ± 0.071
TTATAGAAAATGGAATAGAATGGAATGGAAGAAATA [CACACA_negctrl_site1086]	9.07 ± 0.55
TATATACACCCACATACACACAAATAAAAAAACACC [CACACA_site3414]	9.24 ± 0.5
ATATTAGTAACACAGACACACAAAAAAAAAAAAAAA [CACACA_site2176]	8.31 ± 0.66
TTTTTCTCTTTAAGGTGTACAATAATACAGTAACCA [XGTACX_site300]	8.57 ± 0.28
TTGTACGCAAAAAAAAAAAAAAAAAAATTAAAATTT [TGCATGCA_negctrl_site586]	8.04 ± 0.26
TTTTTTATTATCAAAACATGCATTTTTTAAATGGAA [TGCATGCA_site557]	8.43 ± 0.3
AGGAAAATACCTTAATGTACATAGAAAAGTAACATT [XGTACX_site8011]	8.62 ± 0.42
CACTTAACACAAGAGTGTACACATATATATATATAT [XGTACX_site686]	10.1 ± 0.53
GGGAAATATTGAAACACACACGAACGCACGTATTTC [CACACA_site6258]	8.46 ± 0.36
ATAATATTTTCTTCTTATTGAATGCTTTAAATTTAC [CACACA_negctrl_site1273]	8.68 ± 0.53
TTAAGAAGTTCTAAATGTACATACATAACCACGTTA [XGTACX_site7514]	8.41 ± 0.35
TTAAACCGTGGGAGCACACACACACCCCCACCCATA [CACACA_site331]	9.3 ± 0.45
ACAAATAAGTTTTGTAGTACTGTGTATATATATATA [XGTACX_site6901]	9.97 ± 0.3
TACTCAAAAATTAATTAGCATAATATATATAAAAAT [GTGCAC_negctrl_site613]	8.43 ± 0.38

Sequence	gcPBM binding intensity (ln)
GCATAAGAAAATAATTGTACAATTTACATACATAAA [XGTACX_site8286]	8.66 ± 0.45
TATATATGTATATATATAAATATATATATATATATA [TGCATGCA_negctrl_site605]	10.1 ± 0.26
TAATGAAATATACAGAGTACATTCTGTATATAGGAT [XGTACX_site7691]	8.46 ± 0.3
TATAAATATATATACACACACACATTAATACATATA [CACACA_site3488]	8.65 ± 0.48
CTTTTATTAAAATTCACACACATAAACTTTTATAAA [CACACA_site7027]	8.21 ± 0.38
AATATATACAATATATGTACATATATATACACATAT [XGTACX_site4190]	8.62 ± 0.31
ACAATAAAAATTTATGCATGTGAATTGAAAAAAAAA [TGCATGCA_site1037]	8.7 ± 0.31
CTTATATATATATCATGTACTTATGTATTTAAGAAT [XGTACX_site3307]	8.46 ± 0.34
AAATAAAACAAACACACACACACATACACAAAAAAA [CACACA_site3849]	8.61 ± 0.61
GTTATTGAAAAAATAGTGCAATATAACAAAGTAAAA	8.95 ± 0.23
TATATATTTCGGTGTGCACACTTTTTATTTTTATCC [CACACA_site1726]	9.13 ± 0.33
TATATATATATATGTACACACATATATACCTTTCAT [CACACA_site2679]	10.1 ± 0.27
GGAATGTAGGGTTTTACCAAAATAAAAATAACCATA [XGTACX_negctrl_site492]	8.6 ± 0.35
TAATTTCTTATGTATTGTACAAATAATATATGATAT [XGTACX_site611]	8.48 ± 0.35
ATAAAATACCTATAAACACACATATAAACAGACATA [CACACA_site7213]	8.81 ± 0.52
ATTTCACAGAAACACACACACAATATATTTCCTTTT [CACACA_site3904]	8.49 ± 0.54
GAAAAATGAAGAGAACAAAATTTTATGATATATATA [GTGCAC_negctrl_site231]	8.96 ± 0.35
TTTCATAAATAAATATGTACATAATTAATAATAAAT [XGTACX_site5882]	8.68 ± 0.39
CCTTGAACCCCACTAACACACACACCCACGCTCAGA [CACACA_site8976]	8.7 ± 0.54
ATTACAAAAAAAAAAAAAAAAAAAAAAAAAAAAAAA [CACACA_negctrl_site448]	7.95 ± 0.33
TATACATAGATATATACACACATATATTTATATACA [CACACA_site6328]	8.26 ± 0.38
ATATGTATATATATTTGTACGTAAAATGAAATCTAA [XGTACX_site213]	9.19 ± 0.45

Sequence	gcPBM binding intensity (ln)
AAATAGTATATAATATGTACATACATAAAAATGTAT [XGTACX_site3524]	8.36 ± 0.3
ACCTATGTATATTATACACACTCCAAACTATTATTT [CACACA_site1817]	8.82 ± 0.44
TTTTGTTTGTTCGTGACTACATTATGTTGTAAATAC [CACACA_negctrl_site604]	8.78 ± 0.38
AAAGGTAAGCAGAATAGTACAGAAGAAAAAATATTT [XGTACX_site2941]	8.97 ± 0.57
ATCAAAAAAAAAAAATTTTTTTTTTTGTTTGTTTCC [CACACA_negctrl_site1042]	8.24 ± 0.58
TATCCTATAAATAATACATGCATATATATATATATT [TGCATGCA_site638]	8.64 ± 0.35
CAACATTTGAGACACACACACATACAAACAAACAAA [CACACA_site7538]	8.78 ± 0.53
CCAATAATATATAGAAGTACAGAAAAAAAAAAAAAA [XGTACX_site2049]	8.4 ± 0.57
AAGAAAATTAAATTAACACACATAAATATGTAAATA [CACACA_site6882]	8.24 ± 0.26
CCCTCTTCTCTCATATCACACATGTCATCCTTATCC [CACACA_site5078]	9.15 ± 0.42
ATCAAAATGTTAAAGATACACACCTAACAAACACAA [CACACA_site955]	8.74 ± 0.42
GCACGCTGTATGAATGCACACATTCATAGAATTGCT [CACACA_site8852]	8.38 ± 0.26
TTATATATATAGAAGTGTACAAAATTTCCTAGACCT [XGTACX_site3900]	8.71 ± 0.28
TATAAATATTTATAAACACACAAATATATATATTTA [CACACA_site27]	8.22 ± 0.28
TATCGACATTTCATTTGTACATATATACATATATTT [XGTACX_site3346]	8.64 ± 0.42
GATGCTAAAATTTATACACACAAAAAAAAAAAATTC [CACACA_site3284]	8.47 ± 0.46
AAAAAAAAAAAATATACACACACACCGACACATAAA [CACACA_site9270]	8.71 ± 0.52
TATTTTATGTAAATTGGTACACATATGTCAGTAAAA [XGTACX_site7111]	8.83 ± 0.58
TTTCATATTTTGTCCTGTTTTTTTTTTTTTTTTCTT [CACACA_negctrl_site993]	8.62 ± 0.51
TTTTGAATATTTGGTCGTACGTAAAAATAGATAATT [XGTACX_site5755]	8.82 ± 0.39
AAAATATAAAAAGTCACACATATATATATTTATTTA [CACACA_site4872]	8.18 ± 0.47
